The full ranking holds about 110,000 compounds; the median of “z-score” is about -0.1, and the highest 2% start at about 2. Some of the results follow.
These compounds were tested against Metabotropic glutamate receptor 8 (Rattus norvegicus) (UniProt P70579) (assay: rat mGluR8 modulators via GIRK flux, primary screen, cell-based, thallium flux, HTS (AID 488969)). Conditions: HEK293 rat mGluR8, GIRK (G protein-gated inwardly rectifying potassium channel) thallium flux, FluoZin2; at 10 µM; stronger effect = higher value; submaximal glutamate (EC20) added with thallium.
Chain of UniProt P70579 (P70579 whole entry, looked up): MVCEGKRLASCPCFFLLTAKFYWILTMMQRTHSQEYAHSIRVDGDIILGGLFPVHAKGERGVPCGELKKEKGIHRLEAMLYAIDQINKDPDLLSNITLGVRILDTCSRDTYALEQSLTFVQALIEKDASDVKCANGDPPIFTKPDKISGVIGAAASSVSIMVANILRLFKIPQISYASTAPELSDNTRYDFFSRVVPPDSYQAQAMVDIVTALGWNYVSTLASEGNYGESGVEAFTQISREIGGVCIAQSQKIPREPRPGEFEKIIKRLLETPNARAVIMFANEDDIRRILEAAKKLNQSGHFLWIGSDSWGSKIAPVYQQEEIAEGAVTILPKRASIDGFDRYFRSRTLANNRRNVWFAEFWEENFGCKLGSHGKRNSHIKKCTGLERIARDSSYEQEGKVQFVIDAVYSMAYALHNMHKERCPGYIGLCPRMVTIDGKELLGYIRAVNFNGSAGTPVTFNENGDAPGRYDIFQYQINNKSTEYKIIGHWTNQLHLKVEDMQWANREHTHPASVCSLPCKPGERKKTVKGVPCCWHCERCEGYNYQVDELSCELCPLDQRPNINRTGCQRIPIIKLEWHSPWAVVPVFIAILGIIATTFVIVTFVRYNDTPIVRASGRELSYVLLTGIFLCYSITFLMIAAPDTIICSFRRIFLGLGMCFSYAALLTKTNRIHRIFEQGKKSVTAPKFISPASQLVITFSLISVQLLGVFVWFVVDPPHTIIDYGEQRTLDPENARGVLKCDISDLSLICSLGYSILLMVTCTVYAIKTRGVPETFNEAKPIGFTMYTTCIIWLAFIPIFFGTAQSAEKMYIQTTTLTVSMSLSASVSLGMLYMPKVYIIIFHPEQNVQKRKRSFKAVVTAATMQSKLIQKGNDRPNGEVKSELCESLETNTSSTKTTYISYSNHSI
Work on `COc1ccc(CC(=O)NC2CCN(CC(=O)N3CCCc4ccccc43)CC2)cc1OC` yielded a z-score of -0.139.
Work on `COC(=O)CSc1ccc2nnc(-c3ccc(OC)c(OC)c3)n2n1` yielded a z-score of 0.916.
For `Cc1ccc(O)c(C(=O)c2cnn(C(=O)COc3ccc(Cl)cc3)c2)c1`, the z-score was -1.38.
Work on `CCCNC(=O)c1ccc2snnc2c1` yielded a z-score of -0.277.
`Cc1ccc2c(Cl)c(C)c(N3CCCCC3)nc2n1` gave a z-score of -0.583.
For `CCOC(=O)Cc1cc(=O)n2[nH]c(-c3ccccc3)cc2n1`, the z-score was -0.109.
In the case of `Cc1cc(/C=C(/C#N)C(=O)Nc2ccccc2)c(C)n1-c1cccnc1`, the z-score is reported as 0.0336.
`COc1ccc(NC(=O)c2cncc(Br)c2)cc1S(=O)(=O)N1CCCCC1` showed a z-score of 0.355.
Compound `CCCNNC(=O)C(O)(c1cccc(C)c1)c1cccc(C)c1` has a z-score of -0.586.
For `Cc1cc2cc(C(c3nnnn3C3CCCC3)N(Cc3cccnc3)Cc3ccco3)c(=O)[nH]c2cc1C` (configuration not stated), the z-score was -0.172.
Work on `CCN(CC)c1ccc(NC(=O)CSc2nnc3nc(C)cc(C)n23)cc1` yielded a z-score of -0.0111.
`CCCC(=O)Nc1ccc(C(=O)N2CCCC2)cc1` was tested, and the z-score was -0.0906.
In the case of `COc1ccccc1C1C(C#N)=C(N)N(c2cccnc2)C2=C1C(=O)CC(C)(C)C2` (configuration not stated), the z-score is reported as -0.017.
Work on `Nc1nnn(CC(=O)N/N=C/c2cccc3ccccc23)n1` yielded a z-score of -0.0446.
`c1coc(Cn2nnnc2CN2CCN(C3CCCC3)CC2)c1` was tested, and the z-score was 0.325.
Work on `CCOC(=O)c1oc2ccccc2c1NC(=O)c1cccc(OC)c1OC` yielded a z-score of -0.439.
Work on `CN(C)Cc1nc2c(c(=O)[nH]1)C(C)(C)Cc1ccccc1-2` yielded a z-score of 0.00689.
`COc1ccc(C(=O)/C=C/Nc2ccccn2)cc1` showed a z-score of -0.371.
In the case of `CCn1c(/C=C/c2cccc([N+](=O)[O-])c2)nc2ccccc2c1=O`, the z-score is reported as 0.0273.
For `CCCNS(=O)(=O)c1ccc(OCC(=O)N2CCC(C(=O)OCC)CC2)cc1`, the z-score was 0.232.
Compound `Cc1ccc(Nc2ccc(C(=O)NCCc3ccccc3)cn2)cc1` has a z-score of -0.106.
`Cc1ccc(C(=O)n2cnnc2N)cc1C` was tested, and the z-score was 0.229.
`S=C(NCc1cccnc1)Nc1ccc(Cl)c(Cl)c1` showed a z-score of 0.672.
`NC(=O)C1CCN(C(=O)c2ccc(Oc3ccccc3)cc2)CC1` was tested, and the z-score was 0.0261.
In the case of `Cc1ccc(NC(=O)c2oc3c(c2C)C(=O)CC(C)(C)C3)cc1`, the z-score is reported as 0.407.
For `O=C(COC(=O)c1ccccn1)NC1CCCCC1`, the z-score was 0.138.
`Cc1ccc2cc(COC(=O)C3CCCO3)c(=O)[nH]c2c1` (configuration not stated) was tested, and the z-score was 1.12.
Compound `Cc1nonc1NC(=O)c1ccc(Cl)c(S(=O)(=O)N2CCCCC2)c1` has a z-score of -0.44.
`C=CCn1c(SCc2c(C(=O)OC)sc(N)c2C(=O)OC)nnc1-c1ccc(Br)cc1` was tested, and the z-score was -0.395.
`Cn1c(NC(=O)c2ccc3c(c2)OCO3)cc(=O)n(C)c1=O` was tested, and the z-score was -0.265.
`O=C(CSCc1c(Cl)cccc1Cl)NCc1ccco1` gave a z-score of -0.132.
With `O=CNNC(=O)c1cccc([N+](=O)[O-])c1` the z-score was -0.102.

— PubChem BioAssay AID488969 (Vanderbilt High Throughput Screening Facility, 2010)
